Results taken from PubChem BioAssay AID1347428 (National Center for Advancing Translational Sciences (NCATS), 2020).
The campaign covered roughly 91,000 compounds. About 290 (0.32%) were called active. The inconclusive results got no clear call from the source; some entries with a clear call stand among them for comparison. The call rests on the fitted dose curve; in most records, active means well fitted inhibition curve with a large enough effect; inconclusive means small, poorly fitted or top-dose-only effect; inactive means no such curve, though single readings can be large or run the other way. Potencies beside an inconclusive call are fits to weak or partial responses and may not hold up.

target: Single-stranded DNA cytosine deaminase (Homo sapiens) (UniProt Q9GZX7); assay: Primary qHTS assay for inhibitors of Activation Induced Cytidine Deaminase (AID): AID signal; settings: AID deamination FRET fluorescence, UDG-coupled, 4 h; series mostly up to 115 µM; further: nearly all actives have a fitted effect of over 25% in size
Potency means the concentration at half of the fitted maximal effect; tags describe the fitted curve by direction and shape.

UniProt Q9GZX7, sequence (Q9GZX7 whole entry, looked up): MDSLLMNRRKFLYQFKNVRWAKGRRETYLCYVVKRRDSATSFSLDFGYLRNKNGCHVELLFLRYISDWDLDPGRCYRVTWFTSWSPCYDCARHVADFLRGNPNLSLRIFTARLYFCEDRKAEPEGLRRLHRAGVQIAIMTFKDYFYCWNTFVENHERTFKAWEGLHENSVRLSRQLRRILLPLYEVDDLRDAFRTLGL

Row | SMILES | Potency
1 | COc1ccc(N2C(=O)CCSC23C(=O)N(Cc2ccc(F)cc2)c2ccccc23)cc1Cl (stereo not given) | inconclusive: 50.1 µM [inhibitor, partial curve, poor fit]
2 | CCN(CC)S(=O)(=O)c1ccc(N/N=C/c2ccc(C)s2)c([N+](=O)[O-])c1 | inactive
3 | CCN1CCN(c2cc(C)c3cc(NC(=O)c4cc(OC)cc(OC)c4)ccc3n2)CC1 | inconclusive: 79.4 µM [inhibitor, single point]
4 | Cc1ccc(OCCn2c(COc3ccc(Cl)cc3)nc3ccccc32)cc1 | inactive
5 | CCCCN(Cc1ccccc1)c1ccc(C(=O)O)cc1NS(=O)(=O)c1ccc(C)c(C)c1 | inactive
6 | O=C(CC1N=C2c3ccccc3N=C(SCc3ccccc3Cl)N2C1=O)NC1CCCCC1 (stereo not given) | inactive
7 | Cc1ccc(N2CCN(C(=O)c3nn(C)c4c3CS(=O)(=O)c3ccccc3-4)CC2C)cc1 (stereo not given) | inconclusive: 50.1 µM [inhibitor, partial curve, poor fit]
8 | Cc1c(Cl)cccc1N1CC(c2nc3ccccc3n2Cc2ccccc2F)CC1=O (stereo not given) | inconclusive: 28.2 µM [inhibitor, full curve]
9 | Cc1cccc(N2CCN(C(=O)Nc3ccc(F)cc3)CC2C)c1 (stereo not given) | inactive
10 | CCCCCSc1nnc2c(n1)OC(c1ccc(C)s1)N(C(C)=O)c1ccccc1-2 (stereo not given) | inconclusive: 56.2 µM [inhibitor, partial curve, poor fit]
11 | COc1cccc(NC(=O)Cn2c(=O)n(Cc3ccccc3)c(=O)c3c4c(sc32)CN(C(C)=O)CC4)c1 | inconclusive: 39.8 µM [inhibitor, partial curve, poor fit]
12 | Cc1ccc(C(=O)c2cc3ccccc3o2)c(C)c1 | inactive
13 | CCn1c(=O)c2cc(C(=O)N(C)c3cc(C)ccc3C)sc2c2ccccc21 | inconclusive: 79.4 µM [inhibitor, partial curve]
14 | CC(C)CN(c1ccccc1)S(=O)(=O)c1nnc(NC(=O)c2ccco2)s1 | inconclusive: 44.7 µM [inhibitor, partial curve, poor fit]
15 | CCCCN1CC(c2nc3ccccc3n2CCCCOc2c(C)cccc2C)CC1=O (stereo not given) | inconclusive: 56.2 µM [inhibitor, partial curve, poor fit]
16 | COc1cccc(Cn2c(=O)n(-c3cccc(Cl)c3C)c(=O)c3c4c(sc32)CN(C(C)=O)CC4)c1 | inconclusive: 50.1 µM [inhibitor, partial curve, poor fit]
17 | CCOc1ccc(CCNC(=O)C2CCN(C(=O)N3CC(CC)Oc4ccc(C)cc43)CC2)cc1 (stereo not given) | inconclusive: 44.7 µM [inhibitor, partial curve]
18 | Cc1c(OCc2nnc(SC(C)C(=O)Nc3ccc4c(c3)OCO4)n2C)ccc2ccccc12 (stereo not given) | inconclusive: 63.1 µM [inhibitor, partial curve, poor fit]
19 | Cc1cccc(-c2nc(CCNC(=O)Cc3ccc(F)cc3)cs2)c1 | inactive
20 | COc1ccccc1CNC(=O)Cn1c(=O)oc2cc(S(=O)(=O)N3CCC(C)CC3)ccc21 | inactive

Row | SMILES | Potency
21 | COc1cccc(CNCCSc2nnnn2C)c1OCc1ccc(Cl)cc1Cl | inconclusive: 56.2 µM [inhibitor, partial curve, poor fit]
22 | CCc1cnc2c(c1SCC(=O)Nc1ccc(Cl)cc1)c(=O)n(C)c(=O)n2C | inconclusive: 31.6 µM [inhibitor, full curve, poor fit]
23 | O=C(CN1CCN(Cc2ccccc2Cl)C1=O)NCc1ccccc1Cl | inconclusive: 14.1 µM [inhibitor, full curve]
24 | CSc1nc2c(c(=O)n(C)c(=O)n2C)n1Cc1cccc2ccccc12 | inconclusive: 50.1 µM [inhibitor, partial curve, poor fit]
25 | Cc1ccccc1Cn1c(CCCNC(=O)C2CCCCC2)nc2ccccc21 | inconclusive: 50.1 µM [inhibitor, partial curve, poor fit]
26 | OC1CCN(c2nc(C(F)(F)F)nc3ccccc23)CC1 | inactive
27 | CCOc1ccc(C(=O)c2cn(CC(=O)Nc3cc(OC)cc(OC)c3)c3ccc(F)cc3c2=O)cc1 | inconclusive: 44.7 µM [inhibitor, partial curve, poor fit]
28 | Cc1cccc(NC(=O)Cn2c(=O)n(Cc3ccc(C(=O)NCc4ccc5c(c4)OCO5)cc3)c(=O)c3ccccc32)c1 | inactive
29 | O=C(/C=C/c1ccc(O)cc1)c1ccsc1 | inactive
30 | CCCc1cc(=O)oc2cc(OS(=O)(=O)c3cccc(C#N)c3)ccc12 | inactive
31 | CCCCn1nc(C(=O)Nc2ccccc2)c2ccccc2c1=O | inactive
32 | COc1ccccc1OCCCn1c(C2CC(=O)N(c3ccccc3Cl)C2)nc2ccccc21 (stereo not given) | inconclusive: 44.7 µM [inhibitor, partial curve]
33 | Cc1ccc(C)c(N2CCN(C(=O)CCCn3ncn4c(cc5occc54)c3=O)CC2)c1 | inconclusive: 56.2 µM [inhibitor, single point]
34 | COc1ccc(Cn2cc(C(=O)c3ccc(OC)cc3)c(=O)c3cc4c(cc32)OCCO4)cc1 | inconclusive: 20 µM [inhibitor, full curve, poor fit]
35 | CCc1ccc(-n2c(=O)c3ccc(C(=O)NCCc4ccccc4)cc3n(CC(N)=O)c2=O)cc1 | inconclusive: 100 µM [inhibitor, single point]
36 | CCCCCn1c(NCc2ccccc2OC)nc2ccccc21 | inconclusive: 44.7 µM [inhibitor, partial curve, poor fit]
37 | Cn1nc(C(=O)N2CCN(c3cccc(Cl)c3)CC2)c2c1-c1ccccc1S(=O)(=O)C2 | inconclusive: 11.2 µM [inhibitor, partial curve, poor fit]
38 | Cc1nc2c(-c3ccccc3)c(C)nn2c(C)c1CCC(=O)N1CCN(c2ccccc2)CC1 | inconclusive: 79.4 µM [inhibitor, partial curve, poor fit]
39 | CCOC(=O)C1CCN(C(=O)c2ccc3c(c2)sc2nc(-c4ccccc4)cn23)CC1 | inconclusive: 79.4 µM [inhibitor, partial curve, poor fit]
40 | N#CCCc1c(O)ccc2ccccc12 | inactive
